Values marked as one replicate rest on one cluster of the flow cell; about a third of the high ones do not repeat.
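Note: ATP exposure 15 min at 22 °C before imaging.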

In this data set the test system is ATP. The data set can be described thus: switch fluorescence ratio, 500 uM ATP over buffer (Cy3 cluster intensity, sum of 5 cycles each) (fold (ratio)); higher = stronger signal-on switching upon ATP binding; sequences stand for … in TCGTCGGCAGCGTCAGATGTGTATAAGAGACAGTTTTTTTTTTTTTTTTTTTTTTTTT…TC. As to conditions: aptamer strand: ATP DNA aptamer (quencher-CACCTGGGGGAGTATTGCGGAGGAAGG + anchor), 100 nM annealed; ATP concentration: 500 uM; one replicate. A digest of the protocol:
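The quencher-labelled ATP aptamer, at 100 nM, was annealed to Cy3-labelled switching-strand clusters on a modified Illumina MiSeq flow-cell. The clusters were imaged in selection buffer, then after 15 min with 500 uM ATP at 22 °C, and this buffer/ATP cycle ran five times with NaOH stripping and re-annealing between runs. Per-cluster fluorescence ratios, summed target-cycle over summed buffer-cycle Cy3 intensity, were averaged per switch-domain sequence. Clusters outside 100-1000 RFU were excluded.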
For CAAAGGGGAA, the switch fluorescence ratio amounted to 1.05.

Consider GACCGCGCCC, for which the switch fluorescence ratio amounted to 1.86.

For the sequence GTAGCACTGG, the switch fluorescence ratio stood at 1.45.

TTAGAAGTAC: the switch fluorescence ratio came to 1.31.

With TCTTGGTCTG, the switch fluorescence ratio came to 1.

As to GGGTTATCCA, the switch fluorescence ratio came to 1.01.

For the sequence ACCGATCCGA, the switch fluorescence ratio came out at 1.35.

Take GACCGTTCGA: the switch fluorescence ratio was 0.998.

With CACCGTTAGT, the switch fluorescence ratio stood at 1.04.

On to CTTACCCGGC, for which the switch fluorescence ratio was 1.11.

Consider ACGAGGCCCA, for which the switch fluorescence ratio was found to be 1.05.

Consider GCTAAAACTA, for which the switch fluorescence ratio stood at 1.07.

TTTTGCTCCA: the switch fluorescence ratio stood at 1.04.

Regarding GATCGCCGGG, the switch fluorescence ratio was 0.943.

As to GACGATGATA, the switch fluorescence ratio was 1.07.

Take ATTTATAGTA: the switch fluorescence ratio was 1.

Consider CCTCTTTTTA, for which the switch fluorescence ratio came out at 1.1.

ATACCATGTA: the switch fluorescence ratio amounted to 1.04.

In the case of AGCACGAGCT, the switch fluorescence ratio turned out to be 1.05.

Turning to GGAGAAAGGG, the switch fluorescence ratio worked out at 1.01.

With TTCGAGACCA, the switch fluorescence ratio turned out to be 1.02.

AGCCTAAGCG: the switch fluorescence ratio was determined as 0.962.

ACATTATTCG: the switch fluorescence ratio was found to be 1.05.

Consider GGTCTGAGTA, for which the switch fluorescence ratio turned out to be 0.971.

On to GAGTAGGGAT, for which the switch fluorescence ratio came to 0.974.

Consider GTGAACCTGT, for which the switch fluorescence ratio amounted to 0.986.

CTTAGAGAAA: the switch fluorescence ratio was found to be 0.983.

With GCGCAGCTGC, the switch fluorescence ratio is 1.07.

Turning to TATAGGCCTT, the switch fluorescence ratio amounted to 1.

Turning to TGCAATGTCG, the switch fluorescence ratio turned out to be 1.16.

On to GGTCCATAGA, for which the switch fluorescence ratio came to 0.984.

For GCATTCTTG, the switch fluorescence ratio came out at 1.01.

With TCTCGGCCGC, the switch fluorescence ratio is 1.08.

On to GCAGACGTCT, for which the switch fluorescence ratio is 1.19.

On to CTTCAAAGCG, for which the switch fluorescence ratio was found to be 1.09.

As to AAATCTAAGA, the switch fluorescence ratio amounted to 0.974.

In the case of ACCACCGCTG, the switch fluorescence ratio was found to be 1.33.

ACACATTGGC: the switch fluorescence ratio was 1.

As to CCGTCTCGCC, the switch fluorescence ratio worked out at 3.09.

With TTGTCGATAT, the switch fluorescence ratio was determined as 1.14.

Take CCGGCCTTTT: the switch fluorescence ratio was determined as 0.946.

As for TGGAATACGC, the switch fluorescence ratio stood at 1.57.

Turning to TAAACTCAGA, the switch fluorescence ratio turned out to be 1.03.

Take CCTGGCGGCG: the switch fluorescence ratio was determined as 0.983.

With CGGCGGTTGG, the switch fluorescence ratio worked out at 0.982.

Take AACAAAGTGC: the switch fluorescence ratio was determined as 0.929.

In the case of CCTTGAAATG, the switch fluorescence ratio was found to be 1.06.

In the case of CATCTTTGGA, the switch fluorescence ratio worked out at 1.01.

As to GTCGTAGCAG, the switch fluorescence ratio came out at 1.01.

On to AGCGCACCGA, for which the switch fluorescence ratio stood at 1.06.

On to TGCCGCACTT, for which the switch fluorescence ratio is 1.07.

Consider TTTACCAGCT, for which the switch fluorescence ratio worked out at 1.06.

With TTAGGACCAT, the switch fluorescence ratio came out at 1.

For TGAGGAGATA, the switch fluorescence ratio stood at 1.01.

With TTCACCTGAA, the switch fluorescence ratio was 1.06.

Consider TAAACCGAGG, for which the switch fluorescence ratio came out at 0.981.

For the sequence TGAGCCTAGG, the switch fluorescence ratio came out at 1.01.

On to TGATGTACAC, for which the switch fluorescence ratio amounted to 1.

Regarding CATGCCAGCT, the switch fluorescence ratio was 0.966.

For the sequence GATTAGAGCT, the switch fluorescence ratio turned out to be 1.03.

With CATCTTAAGT, the switch fluorescence ratio is 0.983.

With ATCTGGGTG, the switch fluorescence ratio amounted to 1.12.

As to GGTAACGTG, the switch fluorescence ratio was 1.07.

Turning to GCATACCGTG, the switch fluorescence ratio is 1.

For the sequence CGGTATCAGG, the switch fluorescence ratio amounted to 0.986.

For the sequence TAACCAACCA, the switch fluorescence ratio was 1.06.

Turning to GTAGTCTGTT, the switch fluorescence ratio came out at 0.977.

Turning to CTATGGGTTG, the switch fluorescence ratio came to 0.997.

With CTTACTTATT, the switch fluorescence ratio came to 0.991.

As to ATATGCCCAG, the switch fluorescence ratio worked out at 0.975.

Regarding CGGCACGGTG, the switch fluorescence ratio stood at 1.04.

With AGCTTTTTTT, the switch fluorescence ratio stood at 0.964.

For CACTCTCTCG, the switch fluorescence ratio is 0.995.

Turning to GTTTTACCTT, the switch fluorescence ratio came out at 1.11.

Consider GAATGTGCCC, for which the switch fluorescence ratio was 1.04.

On to CAGAAGTACG, for which the switch fluorescence ratio turned out to be 1.03.

With GATGAAAATT, the switch fluorescence ratio was determined as 1.34.

With GGCGCTGCTC, the switch fluorescence ratio was found to be 0.981.

The values are drawn from the supplement of paper PMC10126150.
